In paper PMC4336329 (PLoS ONE, 2015):
The whole screen tested about 310,000 compounds, of which about 14,000 (4.5%) showed an effect of 50% or more. Effects have a minus sign here. Some of the results follow.

Each molecule was assayed against human ether-à-go-go-related gene (hERG) potassium channel (human, UniProt Q12809) (assay: primary screen, population patch clamp on CHO cells stably expressing hERG).
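Also: peak tail current of the secondary pulse compared with the same well before compound.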

Sequence of human ether-à-go-go-related gene (hERG) potassium channel (Q12809 whole entry, looked up): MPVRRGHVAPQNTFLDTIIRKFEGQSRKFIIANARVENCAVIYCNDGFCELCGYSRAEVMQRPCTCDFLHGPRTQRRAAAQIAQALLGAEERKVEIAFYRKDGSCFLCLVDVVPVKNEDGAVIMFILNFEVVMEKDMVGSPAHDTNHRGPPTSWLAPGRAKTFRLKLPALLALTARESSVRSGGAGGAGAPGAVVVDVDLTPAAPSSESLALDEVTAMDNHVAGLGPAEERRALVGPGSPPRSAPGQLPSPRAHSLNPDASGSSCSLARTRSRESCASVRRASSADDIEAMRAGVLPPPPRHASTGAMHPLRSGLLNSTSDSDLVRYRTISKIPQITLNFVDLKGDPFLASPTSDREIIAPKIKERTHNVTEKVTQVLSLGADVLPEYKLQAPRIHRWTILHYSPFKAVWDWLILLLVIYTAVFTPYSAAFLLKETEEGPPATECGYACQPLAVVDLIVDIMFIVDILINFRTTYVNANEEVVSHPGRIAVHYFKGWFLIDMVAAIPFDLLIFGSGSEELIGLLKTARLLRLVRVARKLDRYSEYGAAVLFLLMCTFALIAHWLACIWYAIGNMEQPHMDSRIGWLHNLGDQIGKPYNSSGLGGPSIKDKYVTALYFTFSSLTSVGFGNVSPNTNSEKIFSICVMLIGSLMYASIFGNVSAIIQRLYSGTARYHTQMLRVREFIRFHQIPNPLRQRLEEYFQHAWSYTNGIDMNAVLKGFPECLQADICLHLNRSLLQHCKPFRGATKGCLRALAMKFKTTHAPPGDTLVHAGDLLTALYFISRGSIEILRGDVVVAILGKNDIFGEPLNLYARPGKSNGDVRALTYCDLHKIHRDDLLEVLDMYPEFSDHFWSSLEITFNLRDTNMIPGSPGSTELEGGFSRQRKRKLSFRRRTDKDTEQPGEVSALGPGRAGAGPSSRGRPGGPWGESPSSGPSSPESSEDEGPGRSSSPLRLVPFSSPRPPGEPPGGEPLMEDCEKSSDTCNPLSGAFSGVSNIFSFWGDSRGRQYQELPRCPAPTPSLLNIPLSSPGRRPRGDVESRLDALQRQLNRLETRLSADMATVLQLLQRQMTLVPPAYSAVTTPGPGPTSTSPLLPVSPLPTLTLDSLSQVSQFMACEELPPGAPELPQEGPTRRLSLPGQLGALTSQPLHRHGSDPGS

Compound	hERG current change (%, negative = inhibition) at 10uM
CCCCCn1c(=O)c2ccccc2n2c(CCl)nnc12	-42.6%
Cc1ccc(NC(=O)c2cc(-c3ccco3)on2)cc1C	26.5%
CCOC(=O)c1cc2c(ccn2C)n1CC(=O)N1C(C)CCCC1C (centres unmarked)	20.5%
CC1CCN(c2ccccc2NC(=O)c2ccc(N3CCOCC3)c([N+](=O)[O-])c2)CC1	-12.6%
CCOC(=O)C1CCN(S(=O)(=O)c2ccc(OC)c(Cl)c2Cl)CC1	-1.07%
O=C(COC(=O)CCC1CCCC1)Nc1ccc(F)cc1Cl	0.603%
CN1C(=O)N(C)C2(c3ccccc3)NC(=O)NC12c1ccccc1 (centres unmarked)	18.9%
C/C(=N\NC(=S)NCc1ccccc1)c1ccc(C)o1	2.84%
COc1ccc(NC(=O)C2CC(=O)NC(Nc3cccc(C)c3)=N2)cc1 (centres unmarked)	16.1%
COCc1ccc(CN2CCC(n3nccc3NC(=O)CCCc3ccccc3)CC2)o1	21.5%
COc1ccc(CN=CC2=C(O)CNC2=O)cc1	9.96%
CCc1ccc(NC(=O)C(C)OC(=O)c2ccc(-n3cnnn3)cc2)cc1 (centres unmarked)	-23.2%
O=C1C=C(NCc2ccncc2)CC(c2ccccc2)C1 (centres unmarked)	-70.7%
COc1ccc(NC(=O)Nc2cccc3ccccc23)c(OC)c1	26.3%
CCOC(=O)C1=C(COC(=O)CCOc2cccc(C)c2)NC(=O)NC1C (centres unmarked)	-21.7%
Cl.NC(=NCc1ccccc1)c1cccc([N+](=O)[O-])c1	-20%
COc1cccc(-c2ccc(C#N)c(OC(=O)c3ccc(Cl)cc3)n2)c1	-15%
Cc1ccc2c(c1)N(C(=O)CCC(=O)N1CCC(C(N)=O)CC1)CC(C)O2 (centres unmarked)	-2.42%
COc1ccccc1NC(=O)CN(C)S(=O)(=O)c1cccc2cccnc12	6.63%
O=C(Nc1ccccc1)c1ccccc1CSc1ccccc1	4.39%
O=S(=O)(O)CCN1CCOCC1	6.65%
Cc1ccc(-c2cn(-c3ccccc3)c(SCC(=O)NC3CCS(=O)(=O)C3)n2)cc1C (centres unmarked)	-2.39%

Compound	hERG current change (%, negative = inhibition) at 10uM
CN(CC(=O)Nc1ccccc1Cl)C(=O)COC(=O)Cc1c(F)cccc1Cl	5.4%
N=c1c2c(-c3ccccc3)c(-c3ccccc3)n(Cc3ccco3)c2ncn1CCN1CCOCC1	-75.9%
CC(CN1CCC(n2nccc2NC(=O)c2ccccc2Cl)CC1)c1ccccc1 (centres unmarked)	-68.9%
CN(Cc1cc2ccccc2[nH]c1=O)C(=O)COc1ccccc1	-8.32%
O=c1c(C=NCCN2CCNCC2)c(-c2ccccc2)[nH]n1-c1ccc([N+](=O)[O-])cc1	-66.4%
CCCOC(=O)C1C2c3ccccc3C(c3ccccc32)C1C(=O)O (centres unmarked)	17.6%
C#CC(C)(C)NC(=O)c1cnc(-c2ccccc2)nc1-c1ccccc1	9.05%
O=C1CSC(c2nn(-c3ccccc3)cc2-c2cc3ccccc3oc2=O)N1Cc1ccco1 (centres unmarked)	4.2%
COc1ccc(C=NCC2COc3ccccc3O2)cc1OC.Cl (centres unmarked)	1.59%
CCc1ccccc1NC(=O)c1ccc(NCCc2ccccc2)c([N+](=O)[O-])c1	6.44%
CC(C)C[C@H](NC(=O)[C@@H](Cc1ccccc1)n1c(=O)[nH]c2ccccc2c1=O)C(=O)N[C@@H](Cc1ccccc1)C(=O)O	-1.24%
Cc1nc(C)c(CCNC(=O)c2ccc(C(F)(F)F)cc2)s1	-6.51%
Cc1ccc(C2Nc3ccccc3NC3=C2C(=O)OC(C)C3)cc1 (centres unmarked)	-4.84%
Cc1ccc(S(=O)(=O)NC2=C(N3CCN(Cc4ccccc4)CC3)C(=O)c3ccccc3C2=O)cc1	-16.5%
CCOc1cc(S(=O)(=O)n2ccnc2)ccc1Br	14.2%
COC(=O)CSc1nc2cc(OC)ccc2cc1C#N	5.12%
CNC(=O)COc1coc(CN2CCN(c3ccccc3)CC2)cc1=O	7.12%
COc1ccc(OC)c(S(=O)(=O)N2CCC(C(=O)NCCc3ccccc3)CC2)c1	-7.28%
Cc1c(C)c2ccc(OCC(=O)N3CCN(c4ccccc4)CC3)cc2oc1=O	-36.1%
CC(N)=Nc1ccc([N+](=O)[O-])cc1	16.9%
Cc1ccc([C@@H]2[C@@H]3C(=O)N(c4ccccc4)C(=O)[C@@H]3[C@]3(C)C(=O)N(Cc4ccccn4)CC(=O)N23)o1	7.21%
CCOc1ccc(NC(=S)NC(=O)c2cncc(Br)c2)cc1	10.1%
